Test results reported in the CheMixHub viscosity set.
Further values from the same series stand in other lists.

Assay: xn = mol fraction of the nth substance listed
Details: 101 kPa

CC(C)CCO + c1ccccc1
Details	viscosity [mPa·s]
293.15 K, x1 = 0.00621	0.645
293.15 K, x1 = 0.01197	0.6446
293.15 K, x1 = 0.01732	0.6443
293.15 K, x1 = 0.02484	0.6445
293.15 K, x1 = 0.03869	0.6473
293.15 K, x1 = 0.0496	0.6505
293.15 K, x1 = 0.05643	0.6533
293.15 K, x1 = 0.06199	0.655
293.15 K, x1 = 0.08846	0.6673
293.15 K, x1 = 0.1319	0.6935
293.15 K, x1 = 0.1854	0.7321
293.15 K, x1 = 0.2141	0.7572
293.15 K, x1 = 0.2419	0.7833
293.15 K, x1 = 0.3032	0.855
293.15 K, x1 = 0.4012	1.006
293.15 K, x1 = 0.4599	1.115
293.15 K, x1 = 0.6381	1.661
293.15 K, x1 = 0.7821	2.438
293.15 K, x1 = 0.8	2.03
293.15 K, x1 = 0.85	2.345
293.15 K, x1 = 0.8897	3.245
293.15 K, x1 = 0.9	2.775
293.15 K, x1 = 0.95	3.399
298.15 K, x1 = 0.8	1.838
298.15 K, x1 = 0.85	2.11
298.15 K, x1 = 0.9	2.476
298.15 K, x1 = 0.95	2.995
303.15 K, x1 = 0.75	1.486
303.15 K, x1 = 0.8	1.67
303.15 K, x1 = 0.85	1.905
303.15 K, x1 = 0.9	2.217
303.15 K, x1 = 0.95	2.651
308.15 K, x1 = 0.75	1.359
308.15 K, x1 = 0.8	1.52
308.15 K, x1 = 0.85	1.723
308.15 K, x1 = 0.9	1.99
308.15 K, x1 = 0.95	2.354
313.15 K, x1 = 0.75	1.246
313.15 K, x1 = 0.8	1.386
313.15 K, x1 = 0.85	1.563
313.15 K, x1 = 0.9	1.791
313.15 K, x1 = 0.95	2.097
318.15 K, x1 = 0.75	1.144
318.15 K, x1 = 0.8	1.267
318.15 K, x1 = 0.85	1.421
318.15 K, x1 = 0.9	1.616
318.15 K, x1 = 0.95	1.874
323.15 K, x1 = 0.75	1.052
323.15 K, x1 = 0.8	1.161
323.15 K, x1 = 0.85	1.294
323.15 K, x1 = 0.9	1.462
323.15 K, x1 = 0.95	1.68
